From the RNAGym collection of RNA variant scans (doi:10.7554/elife.90254) come the findings set out here.

B1: LINE1-mini (parent)
chain: GGCAGAGCUCAACACAGCGUGGCAAAGUGGCUGUGGCUAGACUGCC

Read counts are not given, so values of variants with three or more changes are uncertain.

The variants in the data set derive from B1. Put plainly: self-cleavage, relative activity (ratio to wild type); higher = more cleavage; in vitro, sequencing; the parent is a self-cleaving ribozyme.
As for GGCAGAACUCAACACAGCCCGGCAAAGUGGCCGUGGCUAGACUGCC, the self-cleavage is 0.04.
The same measure for GGCAGAACUCAACACAGCGUGGCAAAGUGUAUGUGGUUAGACUGCC: 0.05; for GGCAGACCUCAACACAGCGUGGCAAGGUGGCUGUGGCUGGACUGCC: 0.06; for GGCAGAACUCAACACAGCGUGGAAAAGUGGCUGUGGCUAGGCUGCC: 0.15.
As for GGCAGACGUCAACCCAGCGUGGCAAAGUGGCUGUUGCUAGACUGCC, the figure is 0.3.
With GGCAGACCUCAACACAGCGUGGCCAAGUGGCUGUGUCUACACUGCC, the self-cleavage is 0.02.
As for GGCAGAACUCAACACAGUGUGGCAAAUUGGCUGUGGCUAGACUGCC, the figure is 0.09.
The same measure for GGCAGAACUCAACACAGCGUGGCAAAGUGGCUGAGACUAUACUGCC: 0.03; for GGCAGAACUCAACACAGUGAGGCAAAGUGACUGUGGAUAGACUGCC: 0.06.
With GGCAGAACUCAACACAGCGUGGGAAAGUGGCGGUGGCUAGACUGCC, the self-cleavage came out at 0.03.
The same measure for GGCAGAACUCAACACAGAGUGGCUAAGGGGCUCUGGCUCGACUGCC: 0.01; for GGCAGAACUCAACACAGCGUUGCAACGUGGCUGUGGCUAGACCUCC: 0.43; for GGCAGAACGCAACACAGCGGGGCUAAAUGGCUGUGGCUAGACUGCG: 0.05.
As for GGCAGACCUCAACUCAGCGUGGUAAAGUGGUUGUGGCUAGACUGCC, the figure is 0.08; as for GGCAGAACUCAACACAGCGUGGCAAAGUAGCUGCGGCUAGACUGCC, 0.07.
The same measure for GGCAGAACUCAACACAGCGUGGCAAAGUGGCGGUGGCUAGACUACC: 0.33; for GGCAGACCUCCACACAACGUGGCAAAGUGACUGGGGCUAGACUGAC: 0.02; for GGCAGAACACAACACAGCGUGGCAAACUGGCUGUGGCCACACUGCC: 0.07.
On to GGCAGAACUCAACACAGCGUGAUAAAGUGGCUGUGGCUAGACUGCC, for which the self-cleavage amounted to 0.01.
The same measure for GGCAGACCUCAGCACAGCGUGGCAUAGUGGCUGUGGCUAGACUGCC: 0.01; for GGCAGACCUCAGCAAAGCGUUCCAAAGUGGCUCUGGCUAGACUGCC: 0.03.
The same measure for GGCAGAACUCAACACAGCGUGGCAAAUUGGUUCUGGCUAGACUGCC: 0.18; for GGCAGAACCCAACACAUCGUGGCACAGUGGCUGUGGCUAGACUGCC: 0.09.
As for GGCAGACCUCUACAUAUCGUGGCAAAGGGGCUGUUGCUAGACUGCC, the figure is 0.01.
As for GGCAGAACUCAACACAGCGUGGGAACGUUGCUGUGGCUAGACUGCC, the self-cleavage came out at 0.03.
As for GGCAGAACUCAACACAGCGUGGCAAAGUGACUGUGGCUAGACUCCG, the self-cleavage was 1.06.
Take GGCAGACAUCAACAUCGCGUGGCAAAGUGGCUGUGUCUAGACUGCC: the self-cleavage was found to be 0.03.
As for GGCAGAACUCAACAUAGCGAGGCAAAGUGGCUGUGGCUAGACGUCC, the self-cleavage is 0.09.
The same measure for GGCAGAACUCAACACAGCGUGGCAAAGUGGCUCUGGCUAGACCGCC: 0.13.
As for GGCAGAACUCAACACAGCGUGGCAAAGUGGCUGUGGCUACACUACC, the self-cleavage came out at 0.2.
As to GGCAGAACUCAACACAGCGUGGCAAAGUGGAUGUGGCAAGGCUGCC, the self-cleavage stood at 0.08.
The same measure for GGCAGAACUCAACAUAGCGUGGCAAAGUUGCUGUGGCUAGACUGCC: 0.1; for GGCAGAACUCAACACAGCGGGGCAAAGUGGCUGAGGCUAGAAUGCC: 0.16.
As for GGCAGACCUCAACACAGCGUGGCAAUGUGGCUGUGGAUAGACUGCC, the figure is 0.07; as for GGCAGAACUCAACACAGAUUGGCAAAGUGGCUGUGGCAAGACUGCC, 0.13.
The same measure for GGCAGAACUCAACACAGCGUUGCAAAGUGGCUAUGGCUAGACUGCC: 0.09; for GGCAGACCUCAACUCAGCGUGACAAACUGGCUGUGGCUACACUGCC: 0.03; for GGCAGACCUCAUCACAGCGUGGUAAAGUGGCUGUGGCUAGACCGCC: 0.05.
GGCAGACAUCAACACAGCGUGGCAAGGUGGCUGUGGCUAGACUGCC: the self-cleavage came to 0.56.
The same measure for GGCAGAACUCAACACAGCGUGGCAAAGUGGUUGUGGCUAGACAUCC: 0.03; for GGCAGACCUCAUCAUAGCGUGGAAAAGUGGCUGUGGCUAGACUGCC: 0.07.
As for GGCAGACGUGAACACAGAGUGGCAAAGUGGCUGUGGCUAGACUGCC, the figure is 0.01.
The same measure for GGCAGACCUCAACACAGCGUGGCACAGUGGCUGUGGCGAGACUGCU: 0.01; for GGCAGACCUCAACACAGCGUGGCAACGUGCCUGUGGCUAGACUGCC: 0.28.
Take GGCAGACCUCGACACAGCGUGGCAAACUGGCUGUGGCUAGACUGCC: the self-cleavage was found to be 0.01.
As for GGCAGACCUCAACACGGCGUUGUGAAGUGGCUGUGGCUAGACUGCC, the figure is 0.14; as for GGCAGACCUCUACACAGCGUGGCAAAGUGGCUGUAGCUAGACUGCC, 0.02.
As for GGCAGACCUCAACACUGCGUGUCAAAGUGGCUGUGGCUCGACUGCC, the figure is 0.09; as for GGCAGACCUCAACACAGCGUGGCAAAGUGGCUGUGGCUUAACUGCG, 0.04.
The same measure for GGCAGACCUCCACACAGCGUGGCAACGUGGCUGUGGCUAGACUGCC: 0.02; for GGCAGAACUCAACACAGUGUGGCAAAGUGGCUGUGGCUAGACUGCA: 0.46; for GGCAGACCUCAACACGGCUUGGCAAAGUGCAUGUGGCUAGACUGCC: 0.01.
For GGCAGAACUCAACACAGCGUUGCAAAGUGGAUGUGGCUAGACUGCC, the self-cleavage turned out to be 0.03.
As for GGCAGACCUCAACACAGCGUGGCCAAGUGGCUGUGGCUUGACUGCC, the figure is 0.02.
The same measure for GGCAGACCUCAACACCGCGUGGCAAAGAGGCUAUGGCUAGACUGCC: 0.07; for GGCAGAACUCAACACAGCGUGUCAAAGGGGCUGUGGGUACACUGCC: 0.03.
